From patent US8088574B2, “Poly(A) polymerase” (Wisconsin Alumni Research Foundation, priority 2007, dated 2012)

Tested on: Star-PAP association with PIPKIα, CSPF-73 and RNA Pol II
Assay: immunoprecipitation of endogenous Star-PAP and detection of associated proteins after tBHQ treatment
Details: 100 μM tBHQ for 4 hours, HEK-293 cells

CC(C)(C)c1cc(O)ccc1O [tBHQ, tert-butylhydroquinone]
association of endogenous Star-PAP with PIPKIα, CSPF-73 and RNA Pol II: enhanced
